From the supplement of paper PMC12423691
Some of the results follow. Binding of human transcription factors and regulators to the viral nucleoprotein by AlphaScreen, crude cell-free proteins, amounts not normalised, one pass. Fold of the Venus control; higher = more signal. No active / inactive call. Single-pass screen; sequences are the whole Swiss-Prot entries looked up by name.

B1: ATF7, P17544 (protein)
chain: MGDDRPFVCNAPGCGQRFTNEDHLAVHKHKHEMTLKFGPARTDSVIIADQTPTPTRFLKNCEEVGLFNELASSFEHEFKKAADEDEKKAAAGPLDMSLPSTPDIKIKEEEPVEVDSSPPDSPASSPCSPPLKEKEVTPKPVLISTPTPTIVRPGSLPLHLGYDPLHPTLPSPTSVITQAPPSNRQMGSPTGSLPLVMHLANGQTMPVLPGPPVQMPSVISLARPVSMVPNIPGIPGPPVNSSGSISPSGHPIPSEAKMRLKATLTHQVSSINGGCGMVVGTASTMVTARPEQSQILIQHPDAPSPAQPQVSPAQPTPSTGGRRRRTVDEDPDERRQRFLERNRAAASRCRQKRKLWVSSLEKKAEELTSQNIQLSNEVTLLRNEVAQLKQLLLAHKDCPVTALQKKTQGYLESPKESSEPTGSPAPVIQHSSATAPSNGLSVRSAAEAVATSVLTQMASQRTELSMPIQSHVIMTPQSQSAGR
B2: GRHL2, Q6ISB3 (protein)
chain: MSQESDNNKRLVALVPMPSDPPFNTRRAYTSEDEAWKSYLENPLTAATKAMMSINGDEDSAAALGLLYDYYKVPRDKRLLSVSKASDSQEDQEKRNCLGTSEAQSNLSGGENRVQVLKTVPVNLSLNQDHLENSKREQYSISFPESSAIIPVSGITVVKAEDFTPVFMAPPVHYPRGDGEEQRVVIFEQTQYDVPSLATHSAYLKDDQRSTPDSTYSESFKDAATEKFRSASVGAEEYMYDQTSSGTFQYTLEATKSLRQKQGEGPMTYLNKGQFYAITLSETGDNKCFRHPISKVRSVVMVVFSEDKNRDEQLKYWKYWHSRQHTAKQRVLDIADYKESFNTIGNIEEIAYNAVSFTWDVNEEAKIFITVNCLSTDFSSQKGVKGLPLMIQIDTYSYNNRSNKPIHRAYCQIKVFCDKGAERKIRDEERKQNRKKGKGQASQTQCNSSSDGKLAAIPLQKKSDITYFKTMPDLHSQPVLFIPDVHFANLQRTGQVYYNTDDEREGGSVLVKRMFRPMEEEFGPVPSKQMKEEGTKRVLLYVRKETDDVFDALMLKSPTVKGLMEAISEKYGLPVEKIAKLYKKSKKGILVNMDDNIIEHYSNEDTFILNMESMVEGFKVTLMEI
B3: FEV, Q99581 (protein)
chain: MRQSGASQPLLINMYLPDPVGDGLFKDGKNPSWGPLSPAVQKGSGQIQLWQFLLELLADRANAGCIAWEGGHGEFKLTDPDEVARRWGERKSKPNMNYDKLSRALRYYYDKNIMSKVHGKRYAYRFDFQGLAQACQPPPAHAHAAAAAAAAAAAAQDGALYKLPAGLAPLPFPGLSKLNLMAASAGVAPAGFSYWPGPGPAATAAAATAALYPSPSLQPPPGPFGAVAAASHLGGHYH
B4: NRF1, Q16656 (protein)
chain: MEEHGVTQTEHMATIEAHAVAQQVQQVHVATYTEHSMLSADEDSPSSPEDTSYDDSDILNSTAADEVTAHLAAAGPVGMAAAAAVATGKKRKRPHVFESNPSIRKRQQTRLLRKLRATLDEYTTRVGQQAIVLCISPSKPNPVFKVFGAAPLENVVRKYKSMILEDLESALAEHAPAPQEVNSELPPLTIDGIPVSVDKMTQAQLRAFIPEMLKYSTGRGKPGWGKESCKPIWWPEDIPWANVRSDVRTEEQKQRVSWTQALRTIVKNCYKQHGREDLLYAFEDQQTQTQATATHSIAHLVPSQTVVQTFSNPDGTVSLIQVGTGATVATLADASELPTTVTVAQVNYSAVADGEVEQNWATLQGGEMTIQTTQASEATQAVASLAEAAVAASQEMQQGATVTMALNSEAAAHAVATLAEATLQGGGQIVLSGETAAAVGALTGVQDANGLVQIPVSMYQTVVTSLAQGNGPVQVAMAPVTTRISDSAVTMDGQAVEVVTLEQ
B5: ZNF137P, P52743 (protein)
chain: MNVARFLVEKHTLHVIIDFILSKVSNQQSNLAQHQRVYTGEKPYKCNEWGKALSGKSSLFYHQAIHGVGKLCKCNDCHKVFSNATTIANHWRIHNEDRSYKCNKCGKIFRHRSYLAVYQRTHTGEKPYKYHDCGKVFSQASSYAKHRRIHTGEKPHKCDDCGKVLTSRSHLIRHQRIHTGQKSYKCLKCGKVFSLWALHAEHQKIHF
B6: POU5F2, Q8N7G0 (protein)
chain: MAGHRPSNHFCPLPGSGGGGPRGPMPLRVDTLTWLSTQAAPGRVMVWPAVRPGICPGPDVWRIPLGPLPHEFRGWIAPCRPRLGASEAGDWLRRPSEGALPGPYIALRSIPKLPPPEDISGILKELQQLAKELRQKRLSLGYSQADVGIAVGALFGKVLSQTTICRFEAQQLSVANMWKLRPLLKKWLKEVEAENLLGLCKMEMILQQSGKWRRASRERRIGNSLEKFFQRCPKPTPQQISHIAGCLQLQKDVVRVWFYNRSKMGSRPTNDASPREIVGTAGPPCPGAPVCFHLGLGLPVDIPHYTRLYSAGVAHSSAPATTLGLLRF
B7: EIF2AK2, P19525 (protein)
chain: MAGDLSAGFFMEELNTYRQKQGVVLKYQELPNSGPPHDRRFTFQVIIDGREFPEGEGRSKKEAKNAAAKLAVEILNKEKKAVSPLLLTTTNSSEGLSMGNYIGLINRIAQKKRLTVNYEQCASGVHGPEGFHYKCKMGQKEYSIGTGSTKQEAKQLAAKLAYLQILSEETSVKSDYLSSGSFATTCESQSNSLVTSTLASESSSEGDFSADTSEINSNSDSLNSSSLLMNGLRNNQRKAKRSLAPRFDLPDMKETKYTVDKRFGMDFKEIELIGSGGFGQVFKAKHRIDGKTYVIKRVKYNNEKAEREVKALAKLDHVNIVHYNGCWDGFDYDPETSDDSLESSDYDPENSKNSSRSKTKCLFIQMEFCDKGTLEQWIEKRRGEKLDKVLALELFEQITKGVDYIHSKKLIHRDLKPSNIFLVDTKQVKIGDFGLVTSLKNDGKRTRSKGTLRYMSPEQISSQDYGKEVDLYALGLILAELLHVCDTAFETSKFFTDLRDGIISDIFDKKEKTLLQKLLSKKPEDRPNTSEILRTLTVWKKSPEKNERHTC
B8: TBPL2, Q6SJ96 (protein)
chain: MEQEETYLELYLDQCAAQDGLAPPRSPLFSPVVPYDMYILNASNPDTAFNSNPEVKETSGDFSSVDLSFLPDEVTQENKDQPVISKHETEENSESQSPQSRLPSPSEQDVGLGLNSSSLSNSHSQLHPGDTDSVQPSPEKPNSDSLSLASITPMTPMTPISECCGIVPQLQNIVSTVNLACKLDLKKIALHAKNAEYNPKRFAAVIMRIREPRTTALIFSSGKMVCTGAKSEEQSRLAARKYARVVQKLGFPARFLDFKIQNMVGSCDVRFPIRLEGLVLTHQQFSSYEPELFPGLIYRMVKPRIVLLIFVSGKVVLTGAKERSEIYEAFENIYPILKGFKKA
B9: GTF2A2, P52657 (protein)
chain: MAYQLYRNTTLGNSLQESLDELIQSQQITPQLALQVLLQFDKAINAALAQRVRNRVNFRGSLNTYRFCDNVWTFVLNDVEFREVTELIKVDKVKIVACDGKNTGSNTTE
B10: ZNF639, Q9UID6 (protein)
chain: MNEYPKKRKRKTLHPSRYSDSSGISRIADGFNGIFSDHCYSVCSMRQPDLKYFDNKDDDSDTETSNDLPKFADGIKARNRNQNYLVPSPVLRILDHTAFSTEKSADIVICDEECDSPESVNQQTQEESPIEVHTAEDVPIAVEVHAISEDYDIETENNSSESLQDQTDEEPPAKLCKILDKSQALNVTAQQKWPLLRANSSGLYKCELCEFNSKYFSDLKQHMILKHKRTDSNVCRVCKESFSTNMLLIEHAKLHEEDPYICKYCDYKTVIFENLSQHIADTHFSDHLYWCEQCDVQFSSSSELYLHFQEHSCDEQYLCQFCEHETNDPEDLHSHVVNEHACKLIELSDKYNNGEHGQYSLLSKITFDKCKNFFVCQVCGFRSRLHTNVNRHVAIEHTKIFPHVCDDCGKGFSSMLEYCKHLNSHLSEGIYLCQYCEYSTGQIEDLKIHLDFKHSADLPHKCSDCLMRFGNERELISHLPVHETT
B11: ZNF821, O75541 (protein)
chain: MSRRKQTNPNKVHWDQVFAGLEEQARQAMMKTDFPGDLGSQRQAIQQLRDQDSSSSDSEGDEEETTQDEVSSHTSEEDGGVVKVEKELENTEQPVGGNEVVEHEVTGNLNSDPLLELCQCPLCQLDCGSREQLIAHVYQHTAAVVSAKSYMCPVCGRALSSPGSLGRHLLIHSEDQRSNCAVCGARFTSHATFNSEKLPEVLNMESLPTVHNEGPSSAEGKDIAFSPPVYPAGILLVCNNCAAYRKLLEAQTPSVRKWALRRQNEPLEVRLQRLERERTAKKSRRDNETPEEREVRRMRDREAKRLQRMQETDEQRARRLQRDREAMRLKRANETPEKRQARLIREREAKRLKRRLEKMDMMLRAQFGQDPSAMAALAAEMNFFQLPVSGVELDSQLLGKMAFEEQNSSSLH
B12: SMAD2, Q15796 (protein)
chain: MSSILPFTPPVVKRLLGWKKSAGGSGGAGGGEQNGQEEKWCEKAVKSLVKKLKKTGRLDELEKAITTQNCNTKCVTIPSTCSEIWGLSTPNTIDQWDTTGLYSFSEQTRSLDGRLQVSHRKGLPHVIYCRLWRWPDLHSHHELKAIENCEYAFNLKKDEVCVNPYHYQRVETPVLPPVLVPRHTEILTELPPLDDYTHSIPENTNFPAGIEPQSNYIPETPPPGYISEDGETSDQQLNQSMDTGSPAELSPTTLSPVNHSLDLQPVTYSEPAFWCSIAYYELNQRVGETFHASQPSLTVDGFTDPSNSERFCLGLLSNVNRNATVEMTRRHIGRGVRLYYIGGEVFAECLSDSAIFVQSPNCNQRYGWHPATVCKIPPGCNLKIFNNQEFAALLAQSVNQGFEAVYQLTRMCTIRMSFVKGWGAEYRRQTVTSTPCWIELHLNGPLQWLDKVLTQMGSPSVRCSSMS

biological target: nucleoprotein N of Crimean-Congo hemorrhagic fever virus; test: AlphaScreen luminescence signal relative to Venus negative control (fold); higher = stronger binding to CCHFV N
Protocol: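 AlphaScreen binding of cell-free made, FLAG-GST-tagged human transcription factors and regulators (crude translation products) to biotinylated N protein; signal as fold of the FLAG-GST-Venus control. One pass.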

Row | Binder | AlphaScreen luminescence signal
1 | B1 | 2.6
2 | B2 | 3.77
3 | B3 | 2.05
4 | B4 | 2.05
5 | B5 | 2.28
6 | B6 | 1.95
7 | B7 | 1.16
8 | B8 | 1.81
9 | B9 | 1.4
10 | B10 | 2.28
11 | B11 | 1.12
12 | B12 | 1.72
